{
  "source": "PubChem BioAssay AID504332",
  "about": "(National Center for Advancing Translational Sciences (NCATS), 2011)",
  "note": "Screen size: about 350,000 compounds; about 31,000 (8.9%) were called active. This list was built around the results that the source calls inconclusive (neither active nor inactive); the mix of calls is not that of the screen. Calls follow the shape of the dose curve; as a rule, active = well fitted inhibition curve with a large enough effect; inconclusive = small, poorly fitted or top-dose-only effect; inactive = no such curve, though single readings can be large or run the other way. Where the call is inconclusive, the potency comes from a doubtful curve fit. % is scaled to controls: 0 for no effect and ±100 for the full control effect; potency is read from the fitted curve at half-maximal effect; tags tell the direction and shape of the fitted curve.",
  "data": [
    {"biological_target": "Histone-lysine N-methyltransferase EHMT2 (Homo sapiens) (UniProt Q96KQ7)", "sequence (Q96KQ7 whole entry, looked up)": "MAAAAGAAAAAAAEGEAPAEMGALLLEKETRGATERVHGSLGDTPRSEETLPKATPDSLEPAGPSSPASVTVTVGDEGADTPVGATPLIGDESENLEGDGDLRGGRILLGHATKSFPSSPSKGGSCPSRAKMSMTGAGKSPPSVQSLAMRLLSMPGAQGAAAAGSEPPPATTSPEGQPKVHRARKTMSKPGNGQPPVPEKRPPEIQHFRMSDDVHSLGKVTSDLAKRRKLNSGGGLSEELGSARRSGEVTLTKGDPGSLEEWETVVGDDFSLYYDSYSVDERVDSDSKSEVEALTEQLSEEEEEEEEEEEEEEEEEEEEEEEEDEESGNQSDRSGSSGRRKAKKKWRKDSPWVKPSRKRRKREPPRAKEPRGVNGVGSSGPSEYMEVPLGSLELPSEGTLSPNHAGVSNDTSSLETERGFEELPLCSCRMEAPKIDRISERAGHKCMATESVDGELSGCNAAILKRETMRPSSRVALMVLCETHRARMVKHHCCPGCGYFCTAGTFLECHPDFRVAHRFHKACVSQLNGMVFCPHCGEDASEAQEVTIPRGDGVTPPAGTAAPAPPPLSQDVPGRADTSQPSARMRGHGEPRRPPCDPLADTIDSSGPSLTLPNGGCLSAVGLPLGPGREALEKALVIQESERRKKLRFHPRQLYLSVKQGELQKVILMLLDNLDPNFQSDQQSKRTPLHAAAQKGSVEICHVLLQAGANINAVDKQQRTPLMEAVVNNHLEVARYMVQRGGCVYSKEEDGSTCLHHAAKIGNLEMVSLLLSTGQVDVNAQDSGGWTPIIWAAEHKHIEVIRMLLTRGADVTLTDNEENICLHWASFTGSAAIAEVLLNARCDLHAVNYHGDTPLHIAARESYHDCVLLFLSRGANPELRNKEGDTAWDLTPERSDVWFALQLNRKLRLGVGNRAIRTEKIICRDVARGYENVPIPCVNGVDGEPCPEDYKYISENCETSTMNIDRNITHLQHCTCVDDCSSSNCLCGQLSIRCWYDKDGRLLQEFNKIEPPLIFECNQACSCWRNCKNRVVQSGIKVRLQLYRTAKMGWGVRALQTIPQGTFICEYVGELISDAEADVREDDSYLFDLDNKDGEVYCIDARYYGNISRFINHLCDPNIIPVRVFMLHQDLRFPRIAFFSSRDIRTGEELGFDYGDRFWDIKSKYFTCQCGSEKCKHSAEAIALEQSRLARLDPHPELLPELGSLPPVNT", "assay": "qHTS Assay for Inhibitors of Histone Lysine Methyltransferase G9a; also: nearly all actives have a fitted effect of over 75% in size", "details": "G9a H3K9 monomethylation, AlphaScreen, 2 h; activity, negative = inhibition: at 59 µM (top of the series) unless noted", "summary_of_the_method": "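Methyltransferase reactions run at room temperature for 2 h (20 nM enzyme, 500 nM biotin-H3K9 peptide, 20 uM SAM) after a 15 min compound preincubation; product detected by AlphaScreen beads and anti-H3K9me1 antibody.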", "values": [
      {"compound": "Cc1ccc(C)c(CSC2=NC(C)(C)Nc3ccccc32)c1", "activity, negative = inhibition": "inactive: 73.7%"},
      {"compound": "COc1ccc(CN(C)S(=O)(=O)c2nnc(NC(=O)C(C)C)s2)cc1OC", "Potency": "inconclusive: 3.16 µM [inhibitor, partial curve]"},
      {"compound": "CCNC(=S)N(CCc1c(C)[nH]c2ccc(C)cc12)Cc1cc(OC)c(OC)c(OC)c1", "Potency": "inconclusive: 89.1 µM [inhibitor, single point]"},
      {"compound": "CCn1nccc1C(=O)Nc1cc(Cl)cc(Cl)c1", "Potency": "inconclusive: 35.5 µM [inhibitor, single point]"},
      {"compound": "Cc1ccc(CCN=c2c([N+](=O)[O-])nn(-c3ccccc3)n2O)cc1", "Potency": "active: 31.6 µM"},
      {"compound": "CCOc1ccc(NC(=S)/C(=C(\\[O-])c2ccc(C)c([N+](=O)[O-])c2)[n+]2ccccc2)cc1", "Potency": "inconclusive: 1.78 µM [inhibitor, partial curve, poor fit]"},
      {"compound": "CC(=O)NC1C(=O)N=C(SCC(=O)Nc2ccc(C(F)(F)F)cc2Cl)NC1=O", "note": "(stereo unspecified)", "Potency": "inconclusive: 50.1 µM [inhibitor, partial curve]"},
      {"compound": "COc1ccc(Oc2ncc3nc(-c4ccc(Cl)cc4)c(=O)n(C)c3n2)cc1", "activity, negative = inhibition": "inactive: 8.29% [at 12.7 µM]"},
      {"compound": "Cc1ccc(C(=O)Nc2sc(Cc3ccc4c(c3)OCO4)c(C)c2C(N)=O)cc1", "Potency": "active: 50.1 µM"},
      {"compound": "O=c1c2c([nH]c3ccc(Br)cc13)CCCC2", "Potency": "inconclusive: 89.1 µM [inhibitor, single point]"},
      {"compound": "COCCn1nnnc1C(c1ccc(OC)cc1OC)N1CCN(c2ccccc2)CC1", "note": "(stereo unspecified)", "Potency": "inconclusive: 1.26 µM [inhibitor, full curve, poor fit]"},
      {"compound": "CCOC(=O)N1CCN(CC(=O)c2c[nH]c3ccc(F)cc23)CC1", "Potency": "active: 50.1 µM"},
      {"compound": "COc1ccc2[nH]c(C)c(CCN(Cc3cccs3)C(=S)Nc3ccc(F)cc3)c2c1", "Potency": "inconclusive: 31.6 µM [inhibitor, single point]"},
      {"compound": "Cc1ccc(C(=O)NCC(=O)OCC(=O)N2CCCc3ccccc32)cc1", "Potency": "inconclusive: 7.08 µM [inhibitor, full curve, poor fit]"},
      {"compound": "CCc1ccc(NC(=O)c2ccc3c(=O)n4nc(Nc5ccccc5C)sc4nc3c2)cc1", "activity, negative = inhibition": "inactive: -9.69%"},
      {"compound": "O=C(Nc1nnc(CCS(=O)(=O)c2ccc3ccccc3c2)s1)c1cccs1", "Potency": "inconclusive: 25.1 µM [inhibitor, single point]"},
      {"compound": "CCOC(=O)c1c(C)oc2nc(C)nc(N(CC(C)C)CC(C)C)c12", "Potency": "inconclusive: 6.31 µM [inhibitor, partial curve, poor fit]"},
      {"compound": "CC(=O)Nc1nnc(SCC(=O)Nc2ccc(N3CCOCC3)c(Cl)c2)s1", "activity, negative = inhibition": "inconclusive: -71.6% [inhibitor]"},
      {"compound": "C=CCNC(=O)CSc1nnc(-c2ccccc2Br)n1-c1cccc(C(F)(F)F)c1", "Potency": "inconclusive: 25.1 µM [inhibitor, single point]"},
      {"compound": "C=CCc1ccccc1OCC(=O)N/N=C/c1ccccc1OCC", "Potency": "inconclusive: 0.282 µM [inhibitor, partial curve, poor fit]"},
      {"compound": "Cc1ccc(NC(=O)COC(=O)c2ccn(C)n2)cc1", "Potency": "inconclusive: 44.7 µM [inhibitor, partial curve, poor fit]"},
      {"compound": "CCC(C(=O)OC)n1cnc2c(nnn2-c2cccc(Cl)c2)c1=O", "note": "(stereo unspecified)", "Potency": "inconclusive: 12.6 µM [inhibitor, full curve, poor fit]"},
      {"compound": "Cc1ccc(N2CCN(/N=C/c3ccncc3)CC2)cc1", "Potency": "inconclusive: 70.8 µM [inhibitor, single point]"},
      {"compound": "Cc1c(NC(=O)C(C)N2CC(C)OC(C)C2)c(=O)n(-c2ccccc2)n1C", "note": "(stereo unspecified)", "Potency": "inconclusive: 1.78 µM [inhibitor, partial curve, poor fit]"},
      {"compound": "c1ccc(N(c2ccccc2)c2nc(N3CCOCC3)nc(N3CCOCC3)n2)cc1", "Potency": "inconclusive: 7.08 µM [inhibitor, single point]"},
      {"compound": "COc1cc(C(=O)Nc2cccc3ncccc23)cc(OC)c1OC", "Potency": "inconclusive: 0.794 µM [inhibitor, full curve, poor fit]"},
      {"compound": "Clc1cccc(-n2ncc3c(NCCc4ccccc4)ncnc32)c1", "activity, negative = inhibition": "inactive: 27%"},
      {"compound": "CCCOc1ccc(C2C(=O)N(C3CCCCC3)CC(=O)N2CCc2ccccc2)cc1OC", "note": "(stereo unspecified)", "activity, negative = inhibition": "inactive: -24.2%"},
      {"compound": "COc1cccc(NC(=O)c2cc([N+](=O)[O-])ccc2NC(=O)CNCC2CCCO2)c1", "note": "(stereo unspecified)", "Potency": "inconclusive: 50.1 µM [inhibitor, partial curve]"},
      {"compound": "CCCCCNC(=O)c1cc2c(=O)n3ccccc3nc2n1C", "Potency": "inconclusive: 8.91 µM [inhibitor, partial curve]"},
      {"compound": "COc1cccc(C(=O)Nc2ccccc2N2CCCC2)c1", "activity, negative = inhibition": "inconclusive: -78% [inhibitor]"},
      {"compound": "COc1ccccc1NC(=S)NCCc1ccc(OC)c(OC)c1", "Potency": "inconclusive: 79.4 µM [inhibitor, single point]"},
      {"compound": "O=C(c1ccccc1)c1ccc(N2CCOCC2)c(NC(=O)c2ccco2)c1", "Potency": "inconclusive: 8.91 µM [inhibitor, full curve]"},
      {"compound": "COc1ccc2[nH]cc(CCNc3ncnc4ccc(-c5ccoc5)cc34)c2c1", "activity, negative = inhibition": "inactive: -46.7% [at 0.501 µM]"},
      {"compound": "O=C(NO)c1ccc(OC(F)F)cc1", "Potency": "inconclusive: 17.8 µM [inhibitor, single point]"},
      {"compound": "Cc1ccc(CNC(=O)c2ccc3c(=O)n(CC4CCCO4)c(=S)[nH]c3c2)cc1", "note": "(stereo unspecified)", "activity, negative = inhibition": "inactive: 2.23%"},
      {"compound": "CCC(CC)COC(=O)C1=C(C)NC(=O)NC1c1ccccc1Br", "note": "(stereo unspecified)", "activity, negative = inhibition": "inactive: 21.8% [at 0.501 µM]"},
      {"compound": "COc1cccc(CN2CCc3nc(Nc4ccc5c(c4)OCCO5)ncc3C2)c1OC", "Potency": "inconclusive: 28.2 µM [inhibitor, single point]"},
      {"compound": "COC(=O)CC1c2cc(OC)c(OC)cc2CC(=O)c2cc(OC)c(OC)cc21", "note": "(stereo unspecified)", "Potency": "inconclusive: 25.1 µM [inhibitor, single point]"},
      {"compound": "O=C1N/C(=N\\S(=O)(=O)c2ccccc2)S/C1=C\\c1cc([N+](=O)[O-])ccc1O", "Potency": "inconclusive: 89.1 µM [inhibitor, single point]"},
      {"compound": "O=C(Cn1sc2ccccc2c1=O)NC12CC3CC(CC(C3)C1)C2", "Potency": "inconclusive: 1.12 µM [inhibitor, full curve, poor fit]"}
    ]}
  ]
}
